{"source": "PubChem BioAssay AID686979", "about": "(National Center for Advancing Translational Sciences (NCATS), 2013)", "note": "The whole screen tested about 420,000 compounds, of which about 50,000 (12%) were called active. The inconclusive results got no clear call from the source; some entries with a clear call stand among them for comparison. Calls come from the whole dose curve; as a rule, active = well fitted inhibition curve with a large enough effect; inconclusive = small, poorly fitted or top-dose-only effect; inactive = flat fitted curve, though single readings scatter. Potencies of inconclusive entries are left out as doubtful fits. % is set by controls: 0 for no effect and ±100 for the full control effect; potency is the fitted concentration of half-maximal effect; tags give direction and shape of the fitted curve.", "data": [{"assay": "qHTS for Inhibitors of human tyrosyl-DNA phosphodiesterase 1 (TDP1): qHTS in cells in presence of CPT; note: nearly all actives have a fitted effect of over 55% in size", "settings": "chicken DT40 Tdp1-/-;hTDP1 cells + 20 nM CPT, ATP luminescence, 48 h; activity change, negative = growth inhibition: at 46.2 µM (top of the series) unless noted", "outline": "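Chicken DT40 Tdp1-/- cells stably complemented with human TDP1 were seeded at 400 cells/well in medium containing 20 nM camptothecin, exposed to pin-transferred compounds, and grown at 37 °C for at least 48 hr. Viability was read as ATP luminescence.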", "values": [{"smiles": "O=C(N/N=C/C(Br)=C/c1ccccc1)C(O)c1ccccc1", "note": "(stereo not given)", "Potency": "active: 5.8 µM"}, {"smiles": "COc1cc(NC(=O)C2CC(=O)N(CCc3ccccc3)C2)cc(OC)c1", "note": "(stereo not given)", "activity change, negative = growth inhibition": "inconclusive: -35.9% [inhibitor]"}, {"smiles": "COc1ccc(-c2cc3c(=O)n(CC(=O)NCc4cccnc4)nc(C)n3n2)cc1", "activity change, negative = growth inhibition": "inactive: 12.9%"}, {"smiles": "O=C(CCCSCCCC(=O)NN=Cc1ccccc1)NN=Cc1ccccc1", "Potency": "inconclusive [inhibitor, single point]"}, {"smiles": "Cc1cc2nn(-c3ccccc3)nc2cc1NC(=O)c1cccs1", "Potency": "inconclusive [inhibitor, single point]"}, {"smiles": "OC[C@@H]1CN(Cc2ccc(-c3ccccc3)cc2)C[C@H](n2cnc3c(N4CCOCC4)ncnc32)O1", "Potency": "inconclusive [inhibitor, single point]"}, {"smiles": "O/N=C/c1cn(-c2ccccc2)nc1-c1ccccc1", "Potency": "inconclusive [inhibitor, single point]"}, {"smiles": "CCOC(=O)Cn1cc(C(=O)OC)c2ccccc21", "Potency": "inconclusive [inhibitor, single point]"}, {"smiles": "COc1ccc(NC(=O)CCSc2ccc(C)cc2)cc1S(=O)(=O)Nc1ccccc1Cl", "Potency": "inconclusive [inhibitor, single point]"}, {"smiles": "COc1ccc(C2=NN(S(=O)(=O)c3ccccc3)C(c3ccccc3)C2)cc1", "note": "(stereo not given)", "Potency": "inconclusive [inhibitor, single point]"}, {"smiles": "O=C(CSc1nc(-c2ccc(F)cc2)nc2c1Cc1ccccc1O2)Nc1cccc(C(=O)O)c1", "Potency": "inconclusive [inhibitor, single point]"}, {"smiles": "CCOc1ccccc1-c1noc(CCCC(=O)Nc2cccc(C(F)(F)F)c2)n1", "Potency": "active: 18.4 µM"}, {"smiles": "Cc1cn(C)c(CC(=O)N2CCN(c3cccc(C(F)(F)F)c3)CC2)c1C(=O)O", "Potency": "active: 13 µM"}, {"smiles": "CC(CC(=O)Nc1ccc2c(c1)c(=O)n(C)n2Cc1ccc(F)cc1)C(F)(F)F", "note": "(stereo not given)", "Potency": "inconclusive [inhibitor, single point]"}, {"smiles": "Cc1cc(C)c2cc(C#N)c(NCCCN)nc2c1", "Potency": "inconclusive [inhibitor, single point]"}, {"smiles": "CCc1cc2c(cc3c(=O)n(CC(=O)NC4CCCCC4)nc(CC)n32)s1", "activity change, negative = growth inhibition": "inactive: -4.31%"}, {"smiles": "COC(=O)[C@@]1(C)[C@H]2C(=O)N(Cc3ccccc3)C(=O)[C@H]2[C@H]2CN(C)C(=NC3CCCCC3)N21", "activity change, negative = growth inhibition": "inactive: 1.27%"}, {"smiles": "CCOC(=O)CCN(c1ccccc1)S(=O)(=O)c1cc(-c2cc(C)no2)ccc1C", "Potency": "inconclusive [inhibitor, single point]"}, {"smiles": "CC1(C(=O)Nc2ccccc2)Cc2c(-c3ccc4c(c3)OCO4)ccnc2O1", "note": "(stereo not given)", "Potency": "inconclusive [inhibitor, single point]"}, {"smiles": "Brc1ccc(OCc2nnnn2-c2ccccc2)cc1", "activity change, negative = growth inhibition": "inactive: -0.277%"}, {"smiles": "Cc1ccc(-n2nc3cc(C)c(NC(=O)COc4ccccc4)cc3n2)cc1", "activity change, negative = growth inhibition": "inactive: 5.46%"}, {"smiles": "O=C(COC(=O)c1ccccc1O)NCCCc1ccccc1", "activity change, negative = growth inhibition": "inactive: -5.75%"}, {"smiles": "CCCC(=O)C1=C(N2CCCC2)CC(C)(C)C(C(=O)OC)C1=O", "note": "(stereo not given)", "activity change, negative = growth inhibition": "inactive: 2.81%"}, {"smiles": "Cc1sc2nc(CN(C(=O)NC3CCCCC3)C3CCCC3)[nH]c(=O)c2c1C", "Potency": "inconclusive [inhibitor, single point]"}, {"smiles": "Cc1cc(C)n(CC(C)NCc2cn[nH]c2-c2cccc3ccccc23)n1", "note": "(stereo not given)", "Potency": "inconclusive [inhibitor, partial curve]"}, {"smiles": "O=C(NCC(c1cccnc1)N1CCc2ccccc21)c1ccc(F)c(F)c1", "note": "(stereo not given)", "Potency": "active: 13 µM"}, {"smiles": "CCOc1ccc(C2CC(=O)NC2=O)cc1", "note": "(stereo not given)", "activity change, negative = growth inhibition": "inactive: 5.9%"}, {"smiles": "O=C1NC(=Nc2ccccc2)SC1Cc1ccccc1", "note": "(stereo not given)", "activity change, negative = growth inhibition": "inactive: -13.1%"}, {"smiles": "Cn1c2ccccc2c2c(=O)oc3ccccc3c21", "Potency": "inconclusive [inhibitor, single point]"}, {"smiles": "COc1ccc(SCC(=O)c2cc(C)c(OC(=S)N(C)C)c(C)c2)cc1", "Potency": "active: 20.6 µM"}, {"smiles": "O=C(NCCO)c1cccc(-c2cnc3cccnn23)c1", "Potency": "inconclusive [inhibitor, partial curve]"}, {"smiles": "CC(=O)Nc1ccc(N/C(N)=N/c2nc(C)cc(C)n2)cc1", "Potency": "inconclusive [inhibitor, single point]"}, {"smiles": "Cc1cnn(-c2nc(-c3cccs3)cc(C(F)(F)F)n2)c1", "Potency": "inconclusive [inhibitor, partial curve]"}, {"smiles": "COc1ccc(C(=O)N2CCCCC2c2cc(C(=O)Nc3ccc(OC)cc3C)no2)cc1", "note": "(stereo not given)", "Potency": "inconclusive [inhibitor, single point]"}, {"smiles": "Cc1cccc(C(=O)Nc2cccc(OCc3cc(=O)n4cc(C)sc4n3)c2)c1", "Potency": "inconclusive [inhibitor, partial curve, poor fit]"}, {"smiles": "Cc1ccc(C(C)C)c(OCC(=O)NCC2(N3CCOCC3)CCCCC2)c1", "Potency": "active: 9.2 µM"}, {"smiles": "COc1ccc(Nc2nc(-c3ccncc3)nc3ccccc23)cc1", "Potency": "active: 20.6 µM"}, {"smiles": "Cc1ccc(C)c(NC(=O)Cn2c(=O)n(-c3ccccc3C)c(=O)c3c2c2cc(C)ccc2n3C)c1", "Potency": "inconclusive [inhibitor, full curve]"}, {"smiles": "O=C1c2c(Br)c(Br)c(Br)c(Br)c2C(=O)N1c1ccccn1", "Potency": "inconclusive [inhibitor, single point]"}, {"smiles": "Cc1ccc(-n2cc3c(c2-c2ccccc2Br)c(=O)n(C)c(=O)n3C)cc1N", "Potency": "inconclusive [inhibitor, single point]"}, {"smiles": "Cc1ccc(NC(=S)N(CCN2CCCCC2)Cc2ccco2)cc1", "Potency": "inconclusive [inhibitor, single point]"}, {"smiles": "Cc1cc(NS(=O)(=O)c2ccc(NC(=O)CCCOc3ccccc3C)cc2)no1", "activity change, negative = growth inhibition": "inactive: -22.9%"}, {"smiles": "CCCn1c(=O)c2ccccc2n2c(SCC(=O)c3ccccc3)nnc12", "Potency": "inconclusive [inhibitor, single point]"}, {"smiles": "Clc1ccc(-c2nc(NCCN3CCOCC3)c3ccccc3n2)cc1", "Potency": "inconclusive [inhibitor, single point]"}, {"smiles": "Cc1cc(C)c(S(=O)(=O)N2CCN(C(=O)c3cc(=O)[nH]c4ccccc34)CC2)c(C)c1", "Potency": "active: 14.6 µM"}]}]}
